# Source: PubChem BioAssay (NCATS)
# Values joined by “and” are separate entries in the source; they are usually repeats but may differ in a detail not shown here. Equal values may be shown once. Inconclusive means that the source gave no clear call. Such entries were picked first, then a sample of the others. Potencies of inconclusive entries are doubtful fits and often do not repeat. Active and inactive are the calls of the source. The call rests on the fitted dose curve; in most records, active means well fitted curve in the direction sought with a large enough effect; inconclusive means small, poorly fitted or top-dose-only effect, or another doubt; inactive means no such curve, though single readings can be large; an effect the other way counts as inactive or inconclusive.
# Legend:
# [1] = tested on: KB-3-1; assay: Cytotoxic Profiling of Annotated Libraries Using Quantitative High-Throughput Screening (AID 1296008); conditions: Five cell lines viability, CellTiter-Glo ATP luminescence, 48-72 h; max response: stronger effect = lower value; further: nearly all actives have a fitted effect of over 60% in size
# How it was run: (§1)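 Cells exposed to compounds for 48 or 72 hr at 37 degrees Celsius. Viability read as ATP-coupled luminescence with CellTiter-Glo after 10 min at room temperature.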
# [2] = tested on: MKL-1; assay: qHTS assay to identify novel small-molecules to repurpose for Merkel cell carcinoma treatment (AID 1296009); conditions: MCC and control cell lines, CellTiter-Glo viability, 72 h; series mostly up to 46 µM; further: nearly all actives have a fitted effect of over 60% in size
# How it was run: (§2)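 Cells were incubated with compound for 72 hr at 37 degree celsius before CellTiter-Glo addition. Luminescence was normalized with no-cell wells as full cytotoxicity and DMSO as baseline.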
# [3] = tested on: UISO; assay: as above; conditions: MCC and control cell lines, CellTiter-Glo viability, 72 h; series mostly up to 46 µM
# How it was run: as §2
# [4] = tested on: MCC-13; assay: as above; conditions: MCC and control cell lines, CellTiter-Glo viability, 72 h; series mostly up to 46 µM
# How it was run: as §2
# [5] = tested on: MCC-26; assay: as above; conditions: MCC and control cell lines, CellTiter-Glo viability, 72 h; activity change, negative = cytotoxicity: at 46 µM (top of the series)
# How it was run: as §2
# [6] = tested on: C33A; assay: Primary qHTS to identify gynecologic anti-cancer compounds using libraries of approved drugs and bioactive compounds (AID 1345084); conditions: Gynecologic cancer cell panel viability, ATPlite luminescence, 48 h; series mostly up to 57.5 µM; further: nearly all actives have a fitted effect of over 55% in size
# How it was run: (§3)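 Cells, 1,000 per well, were allowed to settle for 16 h at 37 C before compound addition. Five concentrations were tested for 48 h, and viability was read by ATPlite luminescence after 15 min at room temperature.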
# [7] = tested on: CAOV3; assay: as above; conditions: Gynecologic cancer cell panel viability, ATPlite luminescence, 48 h; series mostly up to 57.5 µM
# How it was run: as §3
# [8] = tested on: CASKI; assay: as above; conditions: Gynecologic cancer cell panel viability, ATPlite luminescence, 48 h; series mostly up to 57.5 µM
# How it was run: as §3
# [9] = tested on: Es-2; assay: as above; conditions: Gynecologic cancer cell panel viability, ATPlite luminescence, 48 h; series mostly up to 57.5 µM
# How it was run: as §3
# [10] = tested on: Hek293T; assay: as above; conditions: Gynecologic cancer cell panel viability, ATPlite luminescence, 48 h, control line for the selectivity index; series mostly up to 57.5 µM
# How it was run: as §3
# [11] = tested on: JEG-3; assay: as above; conditions: Gynecologic cancer cell panel viability, ATPlite luminescence, 48 h; series mostly up to 57.5 µM
# How it was run: as §3
# [12] = tested on: OV90; assay: as above; conditions: Gynecologic cancer cell panel viability, ATPlite luminescence, 48 h; series mostly up to 57.5 µM
# How it was run: as §3
# [13] = tested on: PA-1; assay: as above; conditions: Gynecologic cancer cell panel viability, ATPlite luminescence, 48 h; series mostly up to 57.5 µM
# How it was run: as §3
# [14] = tested on: SKOV3; assay: as above; conditions: Gynecologic cancer cell panel viability, ATPlite luminescence, 48 h; series mostly up to 57.5 µM
# How it was run: as §3
# [15] = tested on: HaCat; assay: Cytotoxic Profiling of Annotated Libraries Using Quantitative High-Throughput Screening (AID 1296008); conditions: Five cell lines viability, CellTiter-Glo ATP luminescence, 48-72 h; max response: stronger effect = lower value; further: nearly all actives have a fitted effect of over 60% in size
# How it was run: as §1
# [16] = tested on: MKL-2; assay: qHTS assay to identify novel small-molecules to repurpose for Merkel cell carcinoma treatment (AID 1296009); conditions: MCC and control cell lines, CellTiter-Glo viability, 72 h; activity change, negative = cytotoxicity: at 46 µM (top of the series); further: nearly all actives have a fitted effect of over 60% in size
# How it was run: as §2
# [17] = tested on: WaGa; assay: as above; conditions: MCC and control cell lines, CellTiter-Glo viability, 72 h; series mostly up to 46 µM
# How it was run: as §2
# [18] = tested on: NIH3T3; assay: Cytotoxic Profiling of Annotated Libraries Using Quantitative High-Throughput Screening (AID 1296008); conditions: Five cell lines viability, CellTiter-Glo ATP luminescence, 48-72 h; max response: stronger effect = lower value; further: nearly all actives have a fitted effect of over 60% in size
# How it was run: as §1
# [19] = tested on: HeLa; assay: Primary qHTS to identify gynecologic anti-cancer compounds using libraries of approved drugs and bioactive compounds (AID 1345084); conditions: Gynecologic cancer cell panel viability, ATPlite luminescence, 48 h; series mostly up to 57.5 µM; further: nearly all actives have a fitted effect of over 55% in size
# How it was run: as §3
# On the % scale 0 is the no-effect control and ±100 the full control effect; potency means the concentration at half of the fitted maximal effect; tags describe the fitted curve by direction and shape.
compound,measurement,setting,value
Cc1ccc(F)c(NC(=O)Nc2ccc(-c3cccc4[nH]nc(N)c34)cc2)c1,Potency,[1],"inconclusive: 33.2 µM [inhibitor, single point]"
same,Potency,[2],"inconclusive: 23.5 µM [inhibitor, partial curve, poor fit]"
same,Potency,[3],"inconclusive: 23.5 µM [inhibitor, single point]"
COc1cccc2c1C(=O)c1c(O)c3c(c(O)c1C2=O)C[C@@](O)(C(=O)CO)C[C@@H]3O[C@H]1C[C@H](N)[C@H](O[C@@H]2CCCCO2)[C@H](C)O1,Potency,[1],"inconclusive: 29.1 µM [inhibitor, single point]"
same,Potency,[4],active: 3.76 µM
same,Potency,[5],active: 7.5 µM
same,Potency,[3],active: 2.99 µM
same,Potency,[6],active: 10 µM
same,Potency,[7],"inconclusive: 10 µM [cytotoxic, partial curve, poor fit]"
same,Potency,[8],active: 12.6 µM
same,Potency,[9],active: 7.08 µM
same,Potency,[10],active: 10 µM
same,Potency,[11],"inconclusive: 20 µM [cytotoxic, partial curve, poor fit]"
same,Potency,[12],"inconclusive: 12.6 µM [cytotoxic, partial curve, poor fit]"
same,Potency,[13],active: 2.51 µM
same,Potency,[14],active: 12.6 µM
O=C(O)c1ccccc1NCCc1ccccc1,outcome,[15],inactive
same,Potency,[12],"inconclusive: 39.8 µM [cytotoxic, single point]"
CC(C)[C@H](CO)Nc1nc(Nc2ccc(C(=O)O)c(Cl)c2)c2ncn(C(C)C)c2n1,Potency,[1],"inconclusive: 29.6 µM [inhibitor, single point]"
same,Potency,[5],"inconclusive: 5.26 µM [inhibitor, partial curve, poor fit]"
same,Potency,[16],"inconclusive: 0.372 µM [inhibitor, full curve, poor fit]"
same,Potency,[3],"inconclusive: 20.9 µM [inhibitor, partial curve]"
same,Potency,[17],"inconclusive: 18.7 µM [inhibitor, single point]"
same,Potency,[10],inactive
same,Potency,[13],inactive
C[C@](N)(Cc1ccc(O)c(O)c1)C(=O)O,max response,[1],inactive: -5.5% and inactive: -5.11%
same,Potency,[18],"inconclusive: 37.2 µM [inhibitor, single point]"
same,Potency,[2],"inconclusive: 23.5 µM [inhibitor, partial curve, poor fit]"
same,Potency,[16],"inactive and inconclusive: 29.6 µM [inhibitor, partial curve, poor fit]"
same,Potency,[17],"inconclusive: 26.4 µM [inhibitor, partial curve, poor fit]"
same,Potency,[11],"inconclusive: 7.08 µM [cytotoxic, single point]"
CC1(C)OC2=C(C(=O)c3ccccc3C2=O)[C@H](NCc2ccccc2)[C@H]1O,Potency,[1],active: 9.35 µM
same,Potency,[18],active: 11.8 µM
same,Potency,[4],active: 10.5 µM
same,Potency,[5],"inconclusive: 26.4 µM [inhibitor, single point]"
CC(C(=O)O)c1ccc(-c2ccccc2)c(F)c1 (stereo not given),outcome,[15],inactive
same,Potency,[16],inactive
COc1ccc(-c2cc(=O)c3c(O)cc(O)cc3o2)cc1O,max response,[15],inactive: 3.57%
same,Potency,[3],"inconclusive: 33.2 µM [inhibitor, single point]"
same,Potency,[17],"inconclusive: 23.5 µM [inhibitor, single point]"
COC(=O)C1=C(C)NC(C)=C(C(=O)OCC(C)=O)C1c1ccccc1[N+](=O)[O-] (stereo not given),Potency,[1],"inconclusive: 29.1 µM [inhibitor, single point]"
same,Potency,[5],"inconclusive: 16.8 µM [inhibitor, single point]"
same,Potency,[16],active: 10.6 µM
same,Potency,[3],"inconclusive: 18.8 µM [inhibitor, single point]"
same,Potency,[17],"inconclusive: 26.6 µM [inhibitor, single point]"
same,Potency,[19],"inconclusive: 39.8 µM [cytotoxic, single point]"
OC[C@H]1O[C@@H](n2cnc3c2NC=NC[C@@H]3O)C[C@H]1O,max response,[1],inactive: -3.46%
COCCOC(=O)C1=C(C)NC(C)=C(C(=O)OC/C=C/c2ccccc2)C1c1cccc([N+](=O)[O-])c1 (stereo not given),max response,[1],inactive: 22.9%
same,Potency,[18],"inconclusive: 33.5 µM [inhibitor, single point]"
same,Potency,[4],"inconclusive: 21.1 µM [inhibitor, single point]"
same,Potency,[2],active: 21.1 µM
same,Potency,[16],"inconclusive: 29.9 µM [inhibitor, single point]"
same,Potency,[17],"inconclusive: 29.9 µM [inhibitor, single point]"
same,Potency,[6],"inconclusive: 39.8 µM [cytotoxic, single point]"
same,Potency,[7],"inconclusive: 39.8 µM [cytotoxic, single point]"
same,Potency,[8],"inconclusive: 25.1 µM [cytotoxic, single point]"
same,Potency,[10],"inconclusive: 28.2 µM [cytotoxic, single point]"
same,Potency,[13],"inconclusive: 20 µM [cytotoxic, single point]"
same,Potency,[14],"inconclusive: 39.8 µM [cytotoxic, single point]"
Oc1cc(O)cc(C=Cc2ccc(O)c(O)c2)c1,max response,[15],inactive: -2.98%
same,Potency,[2],"inconclusive: 23.5 µM [inhibitor, single point]"
same,Potency,[16],"inconclusive: 20.9 µM [inhibitor, single point]"
Nc1ccc(O)c([N+](=O)[O-])c1,Potency,[1],"inconclusive: 22.4 µM [inhibitor, partial curve, poor fit]"
same,Potency,[18],"inconclusive: 68.6 µM [inhibitor, partial curve, poor fit]"
same,Potency,[2],"inconclusive: 24.3 µM [inhibitor, partial curve]"
same,Potency,[16],"inconclusive: 13.7 µM [inhibitor, partial curve]"
same,Potency,[3],"inconclusive: 30.6 µM [inhibitor, partial curve, poor fit]"
same,Potency,[17],"inconclusive: 19.3 µM [inhibitor, partial curve]"
same,Potency,[12],"inconclusive: 35.5 µM [cytotoxic, single point]"
CCCCCCCCCCCC(=O)[O][Sn]([CH2]CCC)([CH2]CCC)[O]C(=O)CCCCCCCCCCC,outcome,[15],inactive
same,Potency,[13],inactive
Nc1ccccc1NC(=O)c1ccc(CNC(=O)OCc2cccnc2)cc1,Potency,[1],active: 9.35 µM and active: 7.31 µM
same,Potency,[18],"inconclusive: 13.2 µM [inhibitor, partial curve]"
same,Potency,[2],active: 2.35 µM
same,Potency,[16],active: 0.296 µM
same,Potency,[17],active: 0.296 µM
same,Potency,[6],active: 17.8 µM
same,Potency,[10],"inconclusive: 3.55 µM [cytotoxic, full curve, poor fit]"
same,Potency,[11],active: 15.8 µM
same,Potency,[12],active: 0.631 µM
same,Potency,[13],active: 3.16 µM
same,Potency,[14],"inconclusive: 20 µM [cytotoxic, single point]"
NC(=O)c1cn(Cc2c(F)cccc2F)nn1,max response,[15],inactive: 0.796%
same,Potency,[19],inactive
COC(=O)C1=CO[C@@H](O)[C@@H]2C(CO)=CC[C@@H]12,max response,[1],inactive: -1.15%
same,Potency,[2],"inconclusive: 26.4 µM [inhibitor, single point]"
same,Potency,[16],active: 9.35 µM
same,Potency,[3],"inconclusive: 37.2 µM [inhibitor, single point]"
same,Potency,[17],"inconclusive: 18.7 µM [inhibitor, partial curve]"
O=c1cc(CN2CCOCC2)occ1OCCCCCSc1ccnc2cc(C(F)(F)F)ccc12,Potency,[1],"inconclusive: 6.51 µM [inhibitor, partial curve]"
same,max response,[1],inactive: -24.2%
same,Potency,[18],"inconclusive: 29.1 µM [inhibitor, single point]"
same,Potency,[2],inactive
same,Potency,[3],"inconclusive: 14.8 µM [inhibitor, partial curve]"
same,Potency,[17],"inconclusive: 16.6 µM [inhibitor, partial curve]"
same,Potency,[6],"inconclusive: 25.1 µM [cytotoxic, single point]"
same,Potency,[7],"inconclusive: 39.8 µM [cytotoxic, single point]"
same,Potency,[8],"inconclusive: 39.8 µM [cytotoxic, single point]"
same,Potency,[9],"inconclusive: 28.2 µM [cytotoxic, partial curve]"
same,Potency,[19],"inconclusive: 39.8 µM [cytotoxic, single point]"
same,Potency,[11],"inconclusive: 39.8 µM [cytotoxic, single point]"
same,Potency,[12],"inconclusive: 39.8 µM [cytotoxic, single point]"
same,Potency,[13],"inconclusive: 8.91 µM [cytotoxic, partial curve]"
same,Potency,[14],"inconclusive: 35.5 µM [cytotoxic, single point]"
CC1(C)CC(O)CC(C)(C)N1[O],max response,[1],inactive: 7.14%
CNC(=O)c1c(I)c(NC(=O)CCCCC(=O)Nc2c(I)c(C(=O)O)c(I)c(C(=O)NC)c2I)c(I)c(C(=O)O)c1I,Potency,[15],"inconclusive: 2.66 µM [inhibitor, partial curve, poor fit]"
same,Potency,[17],inactive
same,Potency,[9],inactive
same,Potency,[14],inactive
O=C1NC(=O)C(c2ccccc2[N+](=O)[O-])=C1Nc1ccc(O)c(Cl)c1,outcome,[1],inactive
N[C@H](CSC(c1ccccc1)(c1ccccc1)c1ccccc1)C(=O)O,Potency,[1],"inconclusive: 33.2 µM [inhibitor, single point]"
same,Potency,[4],"inconclusive: 37.2 µM [inhibitor, single point]"
same,Potency,[2],"inconclusive: 23.5 µM [inhibitor, single point]"
same,Potency,[16],"inconclusive: 37.2 µM [inhibitor, single point]"
CC(=O)OC(C)OC(=O)C(C)c1ccc(-c2ccccc2)c(F)c1 (stereo not given),max response,[1],inactive: 1.74% and inactive: -23.2%
same,outcome,[18],inactive
same,Potency,[19],inactive
CC(C)(C)NC[C@H](O)COc1nsnc1N1CCOCC1,Potency,[15],"inconclusive: 0.0075 µM [inhibitor, full curve, poor fit]"
same,Potency,[9],inactive
same,Potency,[14],"inconclusive: 1.58 µM [rising, full curve]"
